# Test system: leukocyte adhesion on the endothelium
# Experiment: LPS-induced leukocyte adhesion in vivo, intravital microscopy in the mesenterium of the rat
# Conditions: 50 mg/kg, 17 days p.o., Lewis (m)
# Source text: In inflammatory processes and other states which activate the cytokines, a critical part is played by the destruction of tissue by means of leukocytes which migrate in or which block the microcirculation. The first phase, which is critical for the subsequent course of the disease, is the activation of leukocytes within the blood stream, especially in the pre- and post-capillary area. […] All subsequent leukocyte effects, i.e. active migration through the vessel wall and subsequent oriented migration in the tissue, are secondary reactions (Harlan, J. M., Leukocyte-endothelial interaction, Blood 65, 513-525,1985). […]
# The induced adhesion of leukocytes is quantified by an investigation technique involving intravital microscopy in the mesenterium of the rat (Atherton A. and Born G.V.R., Quantitative investigations of the adhesiveness of circulating polymorphonuclear leukocytes to blood vessel walls. J. Physiol. 222, 447-474,1972; Seiffge, D. Methoden zur Untersuchung der Rezeptor-vermittelten Interaktion zwischen Leukozyten und Endotheizellen im Entzundungsgeschehen [Methods of investigating receptor-mediated interaction between leukocytes and endothelial cells in the case of inflammation] in: Ersatz- und Erganzungsmethoden zu Tierversuchen in der biomedizinischen Forschung, Schoffl, H. et al., (eds.) Springer, 1995 (in press)). […]
compound,measurement,setting,value
C[C@@H]1O[C@@H](CCCOC(=O)N2CCC(C(=O)O)CC2)[C@@H](O)[C@H](O)[C@@H]1O [Compound 12c],inhibition of leukocyte adhesion,218 +/- 10.8 g group,11%
same,inhibition of leukocyte adhesion,237 +/- 22.7 g group,74%
